# Reference: patent US11718633B2, “Indole compounds, process for the preparation and use thereof” (priority 2018, dated 2023)
# Protocol: 10 μM of standard solution is prepared in DMSO, 5 μM of working solution is prepared in DMSO from the standard solution. 495 μL of Buffer (1.2, 2.2, 4.5, 7.4 and 10.2 pH) is transferred in a pre labelled micro centrifuge tube. 5 μL of working solution (5 μM) is added in to the test system. Samples are Vortexed in a table top vortexer for 5 min and centrifuged at 14000 RPM for 5 minutes; supernatant samples are subjected to HPLC analysis.
row,SMILES,aqueous solubility at the acidic pH (in words)
1,"CC1(C)CCN(NC(=O)c2cc3c(Cl)cc(Cl)cc3[nH]2)CC1 [Compound (h), 4,6-dichloro-N-(4,4-dimethylpiperidin-1-yl)-1H-indole-2-carboxamide]",good aqueous solubility
2,"CC1(C)CCN(NC(=O)c2cc3c(F)cc(F)cc3[nH]2)CC1 [Compound (l), N-(4,4-dimethylpiperidin-1-yl)-4,6-difluoro-1H-indole-2-carboxamide]",good aqueous solubility
3,"CC1(C)CCN(NC(=O)c2cc3c(Cl)cc(Cl)cc3[nH]2)CC1.Cl [Compound (n), 4,6-dichloro-N-(4,4-dimethylpiperidin-1-yl)-1H-indole-2-carboxamide hydrochloride]",good aqueous solubility
